Source: patent US10792371B2, “c-Met targeting compound-bioactive material conjugate and use thereof” (Samsung Electronics Co., Ltd., priority 2013, dated 2020)

Assays:
Details in all cases: rank among the four antibodies selected in Reference Example 1.7
[1] = molecular target: T1, c-Met (Homo sapiens, UniProt P08581); assay: Affinity for c-Met of affinity-matured antibodies; format: binding
[2] = tested on: Akt phosphorylation; assay: Akt phosphorylation by affinity-matured antibodies; format: cell-based
[3] = molecular target: T1, c-Met; assay: c-Met degradation degree of affinity-matured antibodies; format: cell-based

T1 sequence (P08581 25-1390): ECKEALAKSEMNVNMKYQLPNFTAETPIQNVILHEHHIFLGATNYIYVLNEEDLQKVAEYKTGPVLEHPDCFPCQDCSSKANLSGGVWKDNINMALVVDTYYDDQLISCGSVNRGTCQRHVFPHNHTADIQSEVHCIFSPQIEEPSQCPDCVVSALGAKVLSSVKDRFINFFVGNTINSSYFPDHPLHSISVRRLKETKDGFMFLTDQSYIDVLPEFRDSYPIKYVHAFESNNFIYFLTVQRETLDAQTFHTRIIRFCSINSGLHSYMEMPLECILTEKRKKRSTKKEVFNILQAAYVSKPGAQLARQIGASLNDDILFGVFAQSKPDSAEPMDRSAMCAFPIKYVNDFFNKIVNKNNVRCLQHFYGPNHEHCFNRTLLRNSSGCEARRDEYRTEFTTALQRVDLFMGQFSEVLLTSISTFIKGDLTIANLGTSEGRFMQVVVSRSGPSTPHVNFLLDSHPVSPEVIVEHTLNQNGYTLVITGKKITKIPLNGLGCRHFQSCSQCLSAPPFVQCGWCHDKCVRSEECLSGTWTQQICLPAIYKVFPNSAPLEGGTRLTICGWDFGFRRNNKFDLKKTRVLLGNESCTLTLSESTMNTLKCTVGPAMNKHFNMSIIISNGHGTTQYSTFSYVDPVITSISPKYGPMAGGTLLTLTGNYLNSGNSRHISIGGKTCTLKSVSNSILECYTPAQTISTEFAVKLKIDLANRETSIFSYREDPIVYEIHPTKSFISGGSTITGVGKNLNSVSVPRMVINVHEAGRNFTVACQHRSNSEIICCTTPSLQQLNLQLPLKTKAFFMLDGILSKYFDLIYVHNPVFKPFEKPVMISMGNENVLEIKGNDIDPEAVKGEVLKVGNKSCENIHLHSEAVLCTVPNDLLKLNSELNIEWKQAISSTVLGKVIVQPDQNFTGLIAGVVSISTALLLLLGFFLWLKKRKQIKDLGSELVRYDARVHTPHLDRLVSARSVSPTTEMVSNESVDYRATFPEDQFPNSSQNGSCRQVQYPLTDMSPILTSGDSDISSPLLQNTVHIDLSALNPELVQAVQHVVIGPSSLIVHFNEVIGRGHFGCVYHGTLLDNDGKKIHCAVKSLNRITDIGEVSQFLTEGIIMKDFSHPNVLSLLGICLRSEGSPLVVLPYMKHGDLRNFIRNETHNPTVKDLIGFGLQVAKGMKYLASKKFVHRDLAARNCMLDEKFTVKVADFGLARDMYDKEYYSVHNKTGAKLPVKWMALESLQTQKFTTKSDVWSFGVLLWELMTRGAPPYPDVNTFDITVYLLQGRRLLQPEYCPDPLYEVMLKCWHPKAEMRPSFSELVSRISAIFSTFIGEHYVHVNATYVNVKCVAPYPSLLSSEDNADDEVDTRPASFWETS

affinity for c-Met [1]: highest | c-Met degradation degree [3]: lowest
B1: huAbF46-H4-A1: affinity-matured humanized anti-c-Met antibody, L3-1 origin (CDR-L3 SEQ ID NO: 13) (antibody)
heavy: EVQLVESGGGLVQPGGSLRLSCAASGFTFTDYYMSWVRQAPGKGLEWLGFIRNKANGYTTEYSASVKGRFTISRDNSKNTLYLQMNSLRAEDTAVYYCARDNWFAYWGQGTLVTVSSASTKGPSVFPLAPSSKSTSGGTAALGCLVKDYFPEPVTVSWNSGALTSGVHTFPAVLQSSGLYSLSSVVTVPSSSLGTQTYICNVNHKPSNTKVDKKVEPKSCDCH[skipping human IgG1 Fc]
light: DIQMTQSPSSLSASVGDRVTITCKSSQSLLASGNQNNYLAWHQQKPGKAPKMLIIWASTRVSGVPSRFSGSGSGTDFTLTISSLQPEDFATYYCQQSYSRPYTFGQGTKVEIKRTVAAPSVFIFPPSDEQLKSGTASVVCLLNNFYPREAKVQWKVDNALQSGNSQESVTEQDSKDSTYSLSSTLTLSKADYEKHKVYACEVTHQGLSSPVTKSFNRGEC
Akt phosphorylation [2]: lowest
